The record followed here is paper PMC6919601, “Identification of Plasmodium dipeptidyl aminopeptidase allosteric inhibitors by high throughput screening” (PLoS ONE, 2019).

The structures appear in SMILES notation. In all, about 110,000 compounds went through this assay and about 230 (0.21%) showed an effect of 50% or more. The list shows a part of the results.
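Also: 30 min substrate incubation versus DMSO and 10 µM JCP410 controls.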

The target of the assay is DPAP1 (Plasmodium falciparum, UniProt Q8IIJ9). Kind of assay: primary screen, percent inhibition; read by cleavage of a fluorogenic dipeptide substrate; higher = more effect of the substance. Also noted: species or system P. falciparum D10 trophozoite lysates; single well.
Chain of DPAP1 (Q8IIJ9 whole entry, looked up): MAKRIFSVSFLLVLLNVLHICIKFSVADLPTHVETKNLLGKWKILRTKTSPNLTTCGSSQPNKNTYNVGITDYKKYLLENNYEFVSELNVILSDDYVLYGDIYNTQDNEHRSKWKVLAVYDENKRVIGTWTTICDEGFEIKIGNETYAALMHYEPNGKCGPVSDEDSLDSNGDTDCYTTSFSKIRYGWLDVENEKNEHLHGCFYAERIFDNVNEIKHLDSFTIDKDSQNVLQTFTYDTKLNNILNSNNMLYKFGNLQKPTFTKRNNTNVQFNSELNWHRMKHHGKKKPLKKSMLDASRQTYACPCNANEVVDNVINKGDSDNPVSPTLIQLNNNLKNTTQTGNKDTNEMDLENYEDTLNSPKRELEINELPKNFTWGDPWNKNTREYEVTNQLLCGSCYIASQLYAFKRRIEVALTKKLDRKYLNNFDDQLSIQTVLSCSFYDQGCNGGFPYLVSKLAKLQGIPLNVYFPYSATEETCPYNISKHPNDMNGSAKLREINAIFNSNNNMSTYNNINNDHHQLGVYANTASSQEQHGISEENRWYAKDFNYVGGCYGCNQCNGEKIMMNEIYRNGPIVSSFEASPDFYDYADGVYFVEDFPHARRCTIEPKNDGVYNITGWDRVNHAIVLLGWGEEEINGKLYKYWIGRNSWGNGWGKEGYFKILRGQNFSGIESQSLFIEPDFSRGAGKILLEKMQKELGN
For `Cn1c(=O)c2c(nc(NCCCO)n2Cc2cccc3ccccc23)n(C)c1=O`, the “% Inhibition @ 10 uM” value was found to be 4.67%.

Regarding `O=C(NCc1ccco1)c1ccc(CNS(=O)(=O)c2cccc(C(F)(F)F)c2)cc1`, the “% Inhibition @ 10 uM” value is -0.055%. Consider `CC(=O)c1ccc(N2C(=O)c3cc(Cl)c(Cl)cc3C2=O)cc1`, for which the “% Inhibition @ 10 uM” value is given as -7.32%.

On to `O=C(NCC12C=CC(O1)C1C(=O)N(c3ccccc3)C(=O)C12)c1ccco1` (centres unmarked), for which the “% Inhibition @ 10 uM” value stood at 32.4%.

On to `COc1ccc(CCC(C)(C)CC(=O)O)cc1`, for which the “% Inhibition @ 10 uM” value was -1.78%. The result for `Cc1ccc(-n2nc3c(=O)n(CCCC(=O)N4CCC(N5CCCCC5)CC4)nc(C)c3c2C)cc1` reads -0.307%.

For the compound `CCCCN(C)CCCNC(=O)Cn1cc2c(n1)-c1c(oc(C(=O)N3CCCC3)c1C)CC2`, the “% Inhibition @ 10 uM” value was found to be 2.54%.

`O=C(Nc1ccc(N2CCN(Cc3ccccc3)CC2)cc1)c1cccnc1Cl`: the “% Inhibition @ 10 uM” value turned out to be 7.02%. Next, `COc1cccc(C(=O)Nc2cccc(C(F)(F)F)c2)c1`: 0.0504%; `Cc1ccc(C)c(Cn2nc(-c3ccccc3)ccc2=O)c1`: -0.946%; `CN1C(N)=NC(=O)/C1=C/c1ccc(OCc2ccccc2)cc1`: 4.18%.

In the case of `CC[C@@H](C)[C@H](NC(=O)Cc1cccc([N+](=O)[O-])c1)C(=O)N[C@@H](CCc1ccccc1)C(=O)COCc1ccccc1`, the “% Inhibition @ 10 uM” value is given as -7.36%. Next, `O=C(Nc1cnn(Cc2ccc(F)cc2)c1)c1cc2n(n1)C(C(F)(F)F)CC(c1ccco1)N2` (centres unmarked): 7.16%; `CCN(Cc1ccccc1)c1nc2c(S(=O)(=O)c3ccccc3)nnn2c2ccccc12`: -8.58%; `COc1ccc(-c2cc(C(=O)N3CCCCC3C)[nH]n2)cc1` (centres unmarked): 3.75%.

`CC(C)(C)NS(=O)(=O)c1ccc(NC(=O)CS(=O)(=O)Cc2ccccc2)cc1`: the “% Inhibition @ 10 uM” value is listed as -1.06%. As for `Cc1ccccc1OC(C)C(=O)Nc1ccc(O)cc1` (centres unmarked), the “% Inhibition @ 10 uM” value is recorded as 1.28%. The result for `COc1ccccc1NC(=O)Nc1ccc(Cl)c(Cl)c1` reads -2.18%. The result for `CC(CC(=O)O)C(C)c1ccccc1` (centres unmarked) reads -0.0505%; that for `CCn1c(C(=O)N2CCC(C(=O)NCCCSC3CCCCC3)CC2)cc2sccc21`, 4.95%; that for `CCCNC(=O)C1CC(=O)N(c2ccc(Cl)cc2)C1` (centres unmarked), -7.91%. Next, `CS(=O)(=O)N(CC(=O)N1CCOCC1)Cc1ccccc1`: 2.95%. As for `COc1cccc(CNC(=O)CN2N=C(c3ccccc3)CCC2=O)c1`, the “% Inhibition @ 10 uM” value is -4.83%. The result for `CCCNC(=O)c1ccc(C)c([N+](=O)[O-])c1` reads -4.91%. For `CCc1[nH]nc2c1C(c1c[nH]c3ccccc13)C(C#N)=C(N)O2` (centres unmarked), the “% Inhibition @ 10 uM” value stood at 3.99%. Next, `O=C(CN1C(=O)c2ccccc2C1=O)N1CCN(c2nnc(-c3ccccc3)c3ccccc23)CC1`: 0.778%.
